# Measured values taken from PubChem BioAssay AID1963576 (National Center for Advancing Translational Sciences (NCATS), 2024).
# The campaign covered roughly 46,000 compounds. About 60 (0.1%) were called active. About 3% were inconclusive and are not listed. Calls follow the shape of the dose curve; as a rule, active = well fitted inhibition curve with a large enough effect; inconclusive = small, poorly fitted or top-dose-only effect; inactive = no such curve, though single readings can be large or run the other way. Some of the results follow.
# Experiment: Primary qHTS assay for Inhibitors of ovarian cancer metastasis using an organotypic tumor microenvironment (TME) model. Also: nearly all actives have a fitted effect of over 65% in size.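 As to activity change, negative = inhibition: plate controls were DMSO wells for no effect and tomatine positive control wells for full effect.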
# Conditions: SKOV3ip1-GFP adhesion/invasion on 3D omental model, fluorescence; series mostly up to 45.8 µM; activity change, negative = inhibition: at the top concentration
# In short: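 A 3D layer of primary human omental fibroblasts, mesothelial cells, fibronectin and collagen I, grown 48 hr, received SKOV3ip1-GFP cells in serum-free medium plus compounds at 0.36-46 umol/L. After 2 hr RT and 16 hr 37 C, fixed adherent GFP cells were counted; normalized to DMSO and tomatine.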
Compound,"activity change, negative = inhibition",outcome
COc1cccc(CNC(=O)Cn2nc(-c3ccc(C)cc3)ccc2=O)c1,inactive: -12.6%,
Cc1ccc(N(C)C(CNS(=O)(=O)c2ccccc2)c2ccccc2)cc1 (centres undefined),inactive: -7.55%,
COc1ccccc1NC(=O)CSc1ccc(-c2ccccn2)nn1,inactive: -7.22%,
Cc1cc(OC(C)C(=O)N2CCC(c3nc4ccccc4o3)CC2)ccc1Cl (centres undefined),inactive: -4.53%,
Cc1ccc(NC(=O)Cn2cc(C(=O)c3ccco3)c3ccccc32)cc1C,inactive: 0.919%,
CCCCN(C)S(=O)(=O)c1ccc(NC2=NS(=O)(=O)c3ccccc32)cc1,inactive: 4.81%,
Cc1ccc(CNC(=O)C2CCC(CNS(=O)(=O)c3ccc(C)cc3)CC2)cc1 (centres undefined),,inactive
COc1ccc(-n2ccnc2SCC(=O)Nc2cccc(OC)c2)cc1,inactive: -6.74%,
CCCNC(=O)C1CCN(C(=O)N2CC(C)Oc3ccccc32)CC1 (centres undefined),inactive: 3.46%,
CCn1ccc2cc(S(=O)(=O)N3CCCN(C(=O)Nc4cccc(SC)c4)CC3)ccc21,inactive: 2.47%,
COc1ccc(-n2ncc(C(=O)N3CCN(C(=O)c4ccco4)CC3)c2C2CCN(C(=O)OC(C)(C)C)CC2)cc1,,inactive
CC(C)Cc1ccc(S(=O)(=O)NCc2nc3cccnc3n2Cc2ccccc2)cc1,inactive: 4.99%,
COc1ccc(-c2ccc(CNCCCSc3nnnn3C)o2)cc1Cl,inactive: -3.28%,
Cc1cc2oc(C(=O)Nc3ccc(S(=O)(=O)N4CCC(C)CC4)cc3)cc(=O)c2cc1C,inactive: 13.2%,
CC(C)c1ccccc1Cc1cc(C(=O)Nc2ccc(S(=O)(=O)c3ccccc3C(C)(C)C)cc2)c(O)c(O)c1O,inactive: -23.7%,
Cc1ccc(-n2nc3c(N4CCC(C(=O)NC5CCCCC5)CC4)nnc(C)c3c2C)cc1,inactive: 10.8%,
COc1ccc(NC(=O)c2c(NCc3ccc(OC)c(OC)c3OC)sc3c2CCC3)c(OC)c1,inactive: 1.55%,
Cc1ccc(/C=C/C(=O)N2CCC(c3nc4ccccc4o3)CC2)cc1,,inactive
CCCCCOc1ccccc1CN1C(=O)C(=O)c2cc(C)ccc21,,inactive
Cc1ccc(NC(=O)CN2C(=O)COc3ccc(S(=O)(=O)N4CCOCC4)cc32)cc1N(C)C,,inactive
COc1ccccc1N1CCN(CCCNC(=O)c2nnc(Cc3ccc(F)cc3Cl)o2)CC1,inactive: -2.95%,
CC1=C(c2ccc(C)c(C)c2)S(=O)(=O)N=C1N1CCC(C(=O)NCc2ccccc2C)CC1,inactive: 4.14%,
Cc1cccc(-c2noc(-c3ccc(NCc4ccccc4)c([N+](=O)[O-])c3)n2)c1,inactive: 9.98%,
O=C(O)CCc1ccc(NCc2cccc(Oc3ccccc3)c2)cc1,inactive: -9.37%,

Compound,"activity change, negative = inhibition",outcome
Cc1ccc(N(C)S(=O)(=O)c2ccc(-c3coc(C)n3)cc2)cc1,inactive: 0.836%,
Cc1nn(CC(=O)NCCc2ccccc2)c(=O)c2nn(-c3ccccc3)c(C)c12,,inactive
COc1cc(C2C(C(=O)Nc3ccc(Cl)cc3)=C(C)Nc3nc(SC)nn32)cc(OC)c1OC (centres undefined),inactive: 2.66%,
CCOc1ccc(CCNC(=O)c2cc3sccc3n2CC)cc1OCC,inactive: -0.238%,
Fc1ccc(CSc2nncn3c2cc2occc23)c(Cl)c1,inactive: 1.23%,
CCc1nc2ccc(C(=O)N3CCN(c4cc(C)ccc4C)CC3)cc2nc1CC,inactive: 17.1%,
CC1=C(C(N)=O)C(c2cccc(Br)c2)n2nc(SCc3ccccc3Cl)nc2N1 (centres undefined),inactive: 9.46%,
CC(C)c1ccc(S(=O)(=O)N2CCN(CC(=O)Nc3ccccc3C(F)(F)F)CC2)cc1,inactive: 1.77%,
CC(C)CCNC(=O)c1ccc2nc(CCc3ccccc3)oc2c1,inactive: 4.53%,
CC(C)Nc1nc2c(S(=O)(=O)c3cccc(Cl)c3)nnn2c2ccsc12,inactive: 5.35%,
Cc1ccc(C(=O)NCC(c2cccs2)S(=O)(=O)c2ccccc2)cc1C (centres undefined),inactive: 2.51%,
COc1cc(CN(C(=O)Nc2cccc(Cl)c2)c2ccccn2)cc(OC)c1OC,inactive: -0.75%,
COC(=O)c1nnn(CC(=O)Nc2c(C)cccc2C)c1N,inactive: -7.46%,
COc1ccc(CCNc2nc(SCc3ccccc3F)nc3ccccc23)cc1OC,inactive: -11.4%,
COC(=O)c1ccc(C(=O)OC)c(NC(=O)c2c(-c3ccccc3)noc2C)c1,inactive: -8.84%,
CCOC(=O)c1c(C)oc2nc(C)nc(NCCc3ccc(OC)c(OC)c3)c12,inactive: 3%,
COC(=O)c1sc(N2C(=O)c3oc4ccc(C)cc4c(=O)c3C2c2ccc(O)c(OC)c2)nc1C (centres undefined),inactive: 18.6%,
CCCCC(CC)CNC(=O)CCCCn1c(=O)[nH]c2ccsc2c1=O (centres undefined),,inactive
CCc1ccc(NC(=O)C2CCCN2S(=O)(=O)c2ccc3nc(-c4ccccc4)[nH]c3c2)cc1 (centres undefined),inactive: -13.4%,
Cc1csc2nc(COc3ccc(NC(=O)C(C)C)cc3)cc(=O)n12,inactive: -22.8%,
CCOC(=O)Cc1c(C)nc2cc(-c3ccc(C(C)(C)C)cc3)nn2c1C,inactive: -20.8%,
COc1ccc(C2CC(=O)c3cnc4c(-c5ccc(F)cc5)c(C)nn4c3C2)cc1OC (centres undefined),,inactive
CCN(CC)S(=O)(=O)c1ccc2c(c1)c(=O)c(C(=O)NCCc1ccccc1)cn2C,,inactive
CCOC(=O)c1c(NC(=O)CSc2nc(-c3ccc(OC)cc3)cc(C(F)(F)F)n2)sc(C)c1C,inactive: 3.98%,

Compound,"activity change, negative = inhibition",outcome
Cn1c(=O)n(CC(=O)O)c(=O)c2c1nc1n2CCCN1c1ccc(Cl)cc1,inactive: 20.5%,
Cc1ccc(NC(=O)c2c3c(nc4ccccc24)C(=O)N(C2CCCCC2)C3)cc1F,,inactive
COc1ccc(-n2ncc(C(=O)N3CCN(C4CCCCC4)CC3)c2C2CCN(C(=O)OC(C)(C)C)CC2)cc1,inactive: 8.26%,
C=CCc1ccccc1OCc1nc2ccc(C)cc2[nH]1,inactive: -8.44%,
Cc1ccccc1NC(=O)CC1NCCNC1=O (centres undefined),inactive: -13.9%,
CCc1ccccc1NC(=O)c1ccc(Cn2nc(N3CCN(c4ccccc4)CC3)ccc2=O)o1,inactive: 1.75%,
Cc1cc(=O)n(Cc2ccccc2)c2c1c(C)nn2-c1ccccc1,,inactive
Cc1cccc(N2CCN(C(=O)C3CCN(S(=O)(=O)c4c(C)noc4/C=C/c4ccccc4F)CC3)CC2C)c1 (centres undefined),inactive: -4.52%,
Cc1ccc(NC(=O)Nc2cn(C)c(=O)c3ccccc23)c(Cl)c1,,inactive
Cc1ccc2oc(=O)c3cnn(CC(=O)N4CCN(c5ccccc5F)CC4)c3c2c1,,inactive
CCCn1c2ccccc2c2cnn(CC(=O)N(CC)c3cc(C)ccc3C)c(=O)c21,inactive: 3.88%,
CCOC(=O)c1cc2c(=O)n3ccccc3nc2n(Cc2ccco2)c1=NC(=O)c1cccc(C)c1,inactive: 29.8%,
CCCNC(=O)CSc1c2c(nc3ccc(Cl)cc13)CCCC2,inactive: -13.3%,
CCOc1ccccc1NC(=O)c1cc2cc3cc(C)ccc3nc2s1,inactive: 2.96%,
COc1ccc(-n2c(SCC(=O)NCc3ccco3)nc3c([nH]c4ccccc43)c2=O)cc1,,inactive
Cc1ccc(NC(=O)CSc2nc3ccccc3c(=O)n2CCC(=O)NC2CCCCC2)cc1C,,inactive
CCOc1ccc(NC(=O)CC2C(=O)N(c3ccccc3)C(=O)N2C2CCCC2)cc1 (centres undefined),inactive: -21.6%,
Cc1ccc(CNC(=O)Cn2nc(N3CCN(c4ccccc4)CC3)ccc2=O)cc1,inactive: 8.4%,
Cc1cccc(N2CCN(C(=O)c3cnn(-c4ccc(F)cc4F)c3C3CCN(C(=O)OC(C)(C)C)CC3)CC2)c1C,inactive: 2.4%,
COCc1cc(C)nc2sc(C(=O)Nc3ccc(C(C)=O)cc3)c(N)c12,inactive: 2.68%,
CNC(=O)CCCN1C(=O)CCn2nc(-c3cn(C)c4ccccc34)cc21,inactive: -4.93%,
CCc1cccc(NC(=O)CSc2nc3ccccc3nc2N2CCCCC2)c1,inactive: -20.6%,
COc1ccc(OCC(=O)Nc2cccc(C(=O)OCc3cc(=O)n4nc(C)sc4n3)c2)cc1,inactive: 0.0759%,
COc1cccc(NC(=O)c2sc3nc(C)c(C(=O)Nc4ccc(C)cc4C)c(-c4ccco4)c3c2N)c1,inactive: -8.29%,

Compound,"activity change, negative = inhibition",outcome
Cc1nc2c3ccccc3nc(NNC(=O)CCC(=O)N3CCN(c4cc(Cl)ccc4C)CC3)n2n1,inactive: 5.7%,
Cc1ccc(C)c(N2CCN(C(=O)CCS(=O)(=O)c3cc(Br)cc4c3N(C(=O)C3CC3)CC4)CC2)c1,inactive: -4.11%,
COC(=O)c1ccc2c(=O)n(CCCCCC(=O)N3CCN(c4cc(C)ccc4C)CC3)c(=O)[nH]c2c1,inactive: 10.2%,
COc1cc2nc(NCCc3ccccc3)n3nc(-c4cccnc4)nc3c2cc1OC,inactive: 2.5%,
Cc1nn(-c2ccccc2)c2sc(C(=O)Nc3cccc(Cl)c3)cc12,inactive: -15.1%,
CCOC(=O)c1c(NC(=O)/C=C/c2ccc(OCC)cc2)sc(C(C)=O)c1C,inactive: -7.13%,
CC(=Cc1ccccc1)C=C1SC(=S)N(CC(=O)O)C1=O,inactive: 2.99%,
CCC(=O)N1CCc2cc(CNS(=O)(=O)c3ccc(C(C)C)cc3)ccc21,,inactive
CCOc1ccc(NC(=O)CC2C(=O)N(c3ccc(OC)cc3)C(=O)N2C2CCCCC2)cc1 (centres undefined),inactive: 9.72%,
CCCSc1ncc(Cl)c(C(=O)N2CCN(c3cccc(Cl)c3)CC2)n1,,inactive
COc1ccc(CNC(=O)C(Cc2ccccc2)NS(=O)(=O)c2ccc3c(c2)CCN3C(C)=O)cc1 (centres undefined),inactive: 3.72%,
COc1cc(NC(=O)CCc2c(C)nc3c(-c4ccc(F)cc4)c(C)nn3c2C)cc(OC)c1OC,,inactive
CCOC(=O)COc1cc(C)c(Cl)cc1C(=O)c1ccn2nc(-c3ccc(OC)cc3)cc2n1,inactive: 0.459%,
COc1ccc(NC(=O)c2cccn2-c2nnc(N3CCCCC3)s2)c(OC)c1,inactive: -7.3%,
CS(=O)(=O)Nc1ccc(-c2nc3ccccc3s2)cc1,inactive: 2.39%,
O=C(CSc1ncc2c(n1)-c1cc(Cl)ccc1N(Cc1ccccc1)S2(=O)=O)NCCc1ccccc1,inactive: 2.46%,
Cc1ccc(NC(=O)Nc2c(C)n(C)n(-c3ccccc3)c2=O)c(Cl)c1,inactive: -11%,
COc1ccccc1NC(=O)c1ccc(-c2nc(COc3ccc(C)cc3)c(C)o2)cc1,inactive: 2.15%,
CCOc1ccc(NC(=O)C2=C(C)C(=O)OC23CCC(C)CC3)cc1 (centres undefined),inactive: -1.2%,
CCOC(=O)c1ccc(NC(=O)CSc2nc(-c3ccc(F)cc3)cc(C(F)(F)F)c2C#N)cc1,inactive: 18.1%,
CCc1nn(CC(=O)NCCc2ccc(OC)c(OC)c2)c(=O)c2cc3occc3n12,,inactive
COc1ccc(NC(=O)C2CCCN(S(=O)(=O)c3c(C)[nH]c(=O)[nH]c3=O)C2)cc1 (centres undefined),,inactive
